# Experimental data as given in PubChem BioAssay AID492949 (National Center for Advancing Translational Sciences (NCATS), 2010).
# The shares of active, inactive and inconclusive entries below differ from those in the screen. A potency beside an inconclusive call is a rough fit, not a confirmed value. The source made the active and inactive calls. Calls follow the shape of the dose curve; as a rule, active = well fitted activation curve with a large enough effect; inconclusive = small, poorly fitted or top-dose-only effect; inactive = no such curve, though single readings can be large or run the other way.
# Biological target: Relaxin receptor 1 (Homo sapiens) (UniProt Q9HBX9)
# Test: qHTS Assay for Agonists of the Relaxin Receptor RXFP1: THP1 Hit Validation; also: nearly all actives have a fitted effect of over 60% in size;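 as to activation: 0% = buffer alone basal and 100% = 29 nM porcine relaxin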
# Details: THP1-RXFP1 cells, cAMP TR-FRET, 30 min; series mostly up to 115 µM; activation: at the top concentration
# Text: The relaxin hormone is involved in the variety of biological functions in normal tissues and diseases. The role of relaxin is well-established in female reproduction and parturition, mammary gland and endometrial development, maintenance of myometrial quiescence during pregnancy. Relaxin signaling through its G protein-coupled receptor (GPCR) RXFP1 results in ECM remodeling through regulation of collagen deposition, cell invasiveness, proliferation and overall tissue homeostasis. […] Recombinant human relaxin (rhRlx) is currently being tested in clinical trials as a protective agent in congestive heart failure, in treating severe preeclampsia, and as an anti-fibrotic agent in systemic sclerosis.
# Upon relaxin binding RXFP1 activation leads to the activation of adenylate cyclase (AC) via Gs. cAMP will activate PKA, which phosphorylates many signaling proteins. Thus, detection of cAMP increase is an easy and reliable indication of relaxin receptor activation. To screen for agonists of the relaxin receptor, a THP1 cell line stably transfected with RXFP1 was used. RXFP1 activation was assayed by changes in cAMP levels as detected with a time-resolved fluorescence energy transfer (TR-FRET) cAMP detection kit.
# NIH Chemical Genomics Center [NCGC]
# NIH Molecular Libraries Probe Production Centers Network [MLPCN]
# Assay Submitter (PI): Alexander Agoulnik
# NCGC Assay Protocol Summary:
# This is a cell-based assay for cAMP second messenger response to screen for agonists of the RXFP1 receptor. The assay was conducted in the presence of a PDE4 inhibitor (Ro 20174). The cells were lysed and the cAMP levels were measured with a TR-FRET cAMP kit. Presence of cAMP in the cell lysate disrupts binding between the cryptate-labeled anti-cAMP and d2-labeled cAMP pair, leading to a decrease in the TR-FRET signal. Data were normalized to the controls for basal activity (buffer only) and 100% activity (29 nM porcine relaxin). The EC50 values were determined from concentration-response data modeled with the standard Hill equation
# 1536-well assay protocol for the THP1 RXFP1 cAMP assay:
# (1) Add 3 ul THP1 RXFP1 cell culture. 2000 cells/well in DMEM/F12, 10% FBS, 1x Pen/Strep (dispensed offline with MultiDrop Combi).
# (3) Add 23 nl compounds in DMSO solution. Final concentration was 0.5 - 58 uM.
# (4) Incubate 30 min at 37C, 5% CO2.
# (5) Add 1 ul cAMP-d2 in lysis buffer (HTRF cAMP HiRange kit, CisBio).
# (6) Add 1 ul anti-cAMP antibody-cryptate in lysis buffer (HTRF cAMP HiRange kit, CisBio).
# (7) Incubate 30 min at room temperature.
# (6) Detect the assay plate in a ViewLux plate reader (PerkinElmer) with Ex=320 nm, Em1=615 nm and Em2=665 nm.
# Keywords: relaxin, RXFP1, RXFP2, G-protein coupled receptor, cAMP, agonist, high throughput screening, MLSMR, MLSCN, NIH Roadmap, qHTS and NCGC
# Potency is read from the fitted curve at half-maximal effect; tags tell the direction and shape of the fitted curve.
# UniProt Q9HBX9, sequence (Q9HBX9 whole entry, looked up): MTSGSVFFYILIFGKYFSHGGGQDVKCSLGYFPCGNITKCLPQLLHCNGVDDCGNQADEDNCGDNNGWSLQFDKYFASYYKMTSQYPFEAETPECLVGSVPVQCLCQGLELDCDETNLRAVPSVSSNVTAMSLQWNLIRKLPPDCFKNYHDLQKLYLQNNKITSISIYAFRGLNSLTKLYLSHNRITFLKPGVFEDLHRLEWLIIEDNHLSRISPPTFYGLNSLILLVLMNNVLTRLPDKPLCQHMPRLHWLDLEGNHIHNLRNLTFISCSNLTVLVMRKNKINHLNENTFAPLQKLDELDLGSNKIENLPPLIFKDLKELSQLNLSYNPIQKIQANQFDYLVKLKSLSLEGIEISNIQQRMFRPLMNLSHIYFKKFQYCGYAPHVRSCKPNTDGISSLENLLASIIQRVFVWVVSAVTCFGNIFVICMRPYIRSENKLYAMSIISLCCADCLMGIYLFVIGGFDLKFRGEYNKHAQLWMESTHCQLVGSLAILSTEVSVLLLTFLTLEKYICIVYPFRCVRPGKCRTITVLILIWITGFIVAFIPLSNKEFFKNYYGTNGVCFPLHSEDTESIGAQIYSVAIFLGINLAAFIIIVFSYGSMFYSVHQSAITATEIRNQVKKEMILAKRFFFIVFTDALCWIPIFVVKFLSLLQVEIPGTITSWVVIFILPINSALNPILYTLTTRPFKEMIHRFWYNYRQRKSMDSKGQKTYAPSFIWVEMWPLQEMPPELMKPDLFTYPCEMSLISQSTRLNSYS
SMILES,Potency,activation
N#CCCSc1ncnc2c1oc1ccccc12,"inconclusive: 12.3 µM [activator, full curve, poor fit]",
O=C1/C(=C/c2ccc(O)c(O)c2)Oc2cc(O)ccc21,,inactive: 1.85%
Cc1cccn2c(=O)c3cc(C(=O)NCc4ccc(F)cc4)c(=N)n(CC4CCCO4)c3nc12 (stereo not given),"inconclusive: 48.9 µM [activator, partial curve]",
NC(=S)c1cc2ccc(O)cc2oc1=O,active: 4.88 µM,
COc1ccc(C(C)=O)cc1Cn1cnc2c(cnn2C)c1=O,active: 13.8 µM,
O=C(O)CNC(=O)c1ccccc1NC(=O)c1ccco1,,inactive: -4.65% [at 125 µM]
Cc1nn(CCCC(=O)NCc2ccc(F)cc2)c(=O)c2nccn12,"inconclusive: 34.6 µM [activator, partial curve]",
CCOC(=O)CC(NC(=O)CCc1c(C)nc2nc(C)nn2c1C)c1ccc(OC(C)C)cc1 (stereo not given),"inconclusive: 17.4 µM [activator, partial curve]",
CCOC(=O)C(CC)Sc1ccc2nnc(-c3cccnc3)n2n1 (stereo not given),"inconclusive: 12.3 µM [activator, full curve]",
O=C(CSc1ccc2nnc(-c3cccnc3)n2n1)Nc1cccc(F)c1,"inconclusive: 43.6 µM [activator, partial curve]",
CC(=O)c1c(C)[nH]c(C(=O)OCc2cc(=O)n3cc(Br)ccc3n2)c1C,active: 8.68 µM,
C=CCOc1c(Cl)cc(CNc2ccc(N(C)C)cc2)cc1OC,,inactive: -13.2%
COc1ccccc1CNC(=O)CCCc1nnc2n(C)c(=O)c3sccc3n12,"inconclusive: 9.74 µM [activator, full curve]",
CC(=O)Nc1ccc(NC(=O)CSc2ccc3nnc(-c4cccnc4)n3n2)cc1,"inconclusive: 9.77 µM [activator, full curve]",
CCN(CC)S(=O)(=O)c1ccc2c(c1)N(CC(=O)Nc1cccnc1Cl)C(=O)CO2,"inconclusive: 13.8 µM [activator, full curve, poor fit]",
Cc1cc(C)c(NC(=O)CS(=O)CC(=O)Nc2ccc(F)cc2F)c(C)c1 (stereo not given),,inactive: -5.33%
Cn1c(N)c(C(=O)CSc2nn(-c3ccc(F)cc3)c(=S)s2)c(=O)n(C)c1=O,"inconclusive: 7.76 µM [activator, full curve]",
O=C(Oc1ccccc1)Oc1ccc2c(c1)oc(=O)c1ccccc12,"inconclusive: 12.3 µM [activator, full curve, poor fit]",
CCOC(=O)CNC(=O)CSc1ccc2nnc(-c3cccnc3)n2n1,,inactive: -30.1%
Cc1ccc2cc(CN(C(=O)c3cccs3)c3ccccc3)c(=O)[nH]c2c1,,inactive: 3.73%

SMILES,Potency,activation
COC(=O)[C@@H]1C[C@@]2(O)[C@H](O)[C@H](O)[C@H](O)C[C@H]2N1Cc1cc(F)ccc1F,,inactive: 3.47%
CC(C)n1cnc2c(N(C)c3cccc(Cl)c3)nc(N(CCO)CCO)nc21,,inactive: -3.44%
O=C(CN1C(=O)c2cccc3cccc(c23)C1=O)NCCN1CCOCC1,"inconclusive: 19.4 µM [activator, partial curve]",
Cn1cnnc1SCC(=O)Nc1cc(S(=O)(=O)N2CCCCC2)ccc1Cl,"inconclusive: 19.4 µM [activator, partial curve]",
CC(C)n1c(SCC(=O)N2CCN(C(=O)c3ccco3)CC2)nc2c1c(=O)n(C)c(=O)n2C,active: 6.9 µM,
O=C1CN(c2nc3ccccc3n3cnnc23)CC(=O)N1CCc1ccccc1,"inconclusive: 21.8 µM [activator, partial curve, poor fit]",
CN(C)CCCn1c(SCC(=O)Nc2nc(-c3cccc(Br)c3)cs2)nc2ccccc2c1=O,,inactive: -13.1%
Cc1c(Cl)cccc1NC(=O)CSc1ccc(-c2cccnc2)nn1,"inconclusive: 12.3 µM [activator, full curve]",
O=C(Nc1ccc2c(c1)C(=O)NC2=O)c1ccc2ncsc2c1,"inconclusive: 21.9 µM [activator, full curve, poor fit]",
CC[N+](CC)(CCCCS(=O)(=O)[O-])CCNP1(=O)C=C(c2ccccc2)OC(c2ccccc2)=C1,"inconclusive: 34.6 µM [activator, partial curve]",
COc1ccc(CC(=O)N/N=C/c2cccnc2)cc1OC,,inactive: -3.65%
COc1ccc(-n2nnc3c(=O)n(CC(=O)NCC4CCCO4)cnc32)cc1 (stereo not given),"inconclusive: 3.46 µM [activator, full curve]",
CCOC(=O)/C(C#N)=C/c1c(N2CCN(CC)CC2)nc2c(C)cccn2c1=O,"inconclusive: 38.9 µM [activator, partial curve, poor fit]",
CC(C)C(=O)Nc1ccc(Nc2ccccc2)cc1,,inactive: -24.6%
CCn1c(=O)c2cc(C(=O)Nc3cccc(C(C)=O)c3)sc2c2ccccc21,,inactive: -31%
CN1C(=O)c2ccc(C(=O)Nc3ccc(Br)cn3)cc2C1=O,active: 21.8 µM,
COc1ccc(CN2C(=O)c3cccnc3C2=O)cc1S(=O)(=O)NC1CCCCC1C (stereo not given),active: 27.5 µM,
COc1ccc(C=O)cc1CN1C(=O)c2ccccc2C1=O,"inconclusive: 38.9 µM [activator, partial curve]",
CC1(C)Cc2nc3sc4c(SCC(=O)NC(c5ccccc5)c5ccccc5)ncnc4c3cc2CO1,active: 3.88 µM,
CC(=O)Nc1ccc(S(=O)(=O)NCc2cc(=O)n(C)c(=O)n2C)cc1,"inconclusive: 43.6 µM [activator, partial curve]",
